Out of some 310,000 compounds screened, about 14,000 (4.5%) showed an effect of 50% or more. The effect is printed as a negative number. The list shows a part of the results.
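Further: peak tail current of the secondary pulse compared with the same well before compound.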

In the assay the target is human ether-à-go-go-related gene (hERG) potassium channel (human, UniProt Q12809). The experiment in a line: primary screen, population patch clamp on CHO cells stably expressing hERG.
Sequence of human ether-à-go-go-related gene (hERG) potassium channel (Q12809 whole entry, looked up): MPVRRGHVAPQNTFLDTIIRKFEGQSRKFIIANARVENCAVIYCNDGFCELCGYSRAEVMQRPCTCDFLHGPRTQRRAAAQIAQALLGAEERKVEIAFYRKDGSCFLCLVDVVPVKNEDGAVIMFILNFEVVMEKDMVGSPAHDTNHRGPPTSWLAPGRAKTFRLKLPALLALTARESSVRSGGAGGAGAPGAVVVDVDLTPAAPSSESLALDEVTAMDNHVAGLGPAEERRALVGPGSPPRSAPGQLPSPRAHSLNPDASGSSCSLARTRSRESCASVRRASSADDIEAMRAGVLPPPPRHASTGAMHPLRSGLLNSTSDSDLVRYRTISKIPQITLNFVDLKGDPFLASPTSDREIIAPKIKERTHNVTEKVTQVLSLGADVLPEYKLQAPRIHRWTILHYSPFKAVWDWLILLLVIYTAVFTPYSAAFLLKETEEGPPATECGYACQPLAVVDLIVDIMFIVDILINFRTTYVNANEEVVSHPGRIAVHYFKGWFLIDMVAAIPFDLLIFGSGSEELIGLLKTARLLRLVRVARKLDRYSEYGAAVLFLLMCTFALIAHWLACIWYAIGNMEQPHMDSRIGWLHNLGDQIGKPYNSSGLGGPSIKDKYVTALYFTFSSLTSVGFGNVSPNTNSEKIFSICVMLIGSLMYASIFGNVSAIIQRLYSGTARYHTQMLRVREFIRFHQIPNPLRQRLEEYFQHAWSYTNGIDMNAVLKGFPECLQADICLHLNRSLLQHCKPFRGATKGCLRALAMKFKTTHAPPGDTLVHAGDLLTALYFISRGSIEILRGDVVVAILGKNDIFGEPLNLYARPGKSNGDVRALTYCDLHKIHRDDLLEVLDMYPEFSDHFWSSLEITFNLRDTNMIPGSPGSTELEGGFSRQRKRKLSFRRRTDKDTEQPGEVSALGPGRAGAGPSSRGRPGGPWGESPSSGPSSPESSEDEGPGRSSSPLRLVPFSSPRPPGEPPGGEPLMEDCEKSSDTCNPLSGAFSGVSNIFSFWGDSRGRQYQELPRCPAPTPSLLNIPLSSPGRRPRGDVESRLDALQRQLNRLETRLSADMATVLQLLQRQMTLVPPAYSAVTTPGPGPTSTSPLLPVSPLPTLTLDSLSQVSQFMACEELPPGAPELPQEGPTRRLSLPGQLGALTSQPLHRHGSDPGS
`COc1ccccc1NC(=O)c1ccc(Cl)c(S(=O)(=O)N2CCOCC2)c1`: the “hERG current change (%, negative = inhibition) at 10uM” value is -25.6%.

On to `CN1C(=O)NC(=O)/C(=C/c2ccc(C(=O)O)cc2)C1=O`, for which the “hERG current change (%, negative = inhibition) at 10uM” value amounted to 1.07%.

As for `Cc1ccc(/C=N/NC(=O)c2ccc3c(c2)OCCO3)s1`, the “hERG current change (%, negative = inhibition) at 10uM” value is 1.53%.

On to `O=C(NC1CCCCC1)C(Cc1ccccc1)N1C(=O)C2C3CCC(C3)C2C1=O` (stereo not drawn), for which the “hERG current change (%, negative = inhibition) at 10uM” value is -16.2%.

Regarding `COc1ccc(NC(=O)CN(C)C(=O)c2ccc(COc3ccccc3)o2)cc1`, the “hERG current change (%, negative = inhibition) at 10uM” value is on record as -12.1%.

`Cc1ccccc1Sc1ccc(N)cn1`: the “hERG current change (%, negative = inhibition) at 10uM” value came to 13.2%.

As to `CCOc1ccccc1OCC(=O)Nc1ccc(N2CCCCC2)cc1`, the “hERG current change (%, negative = inhibition) at 10uM” value is reported as 7.15%.

For the compound `COc1cc(NC(C)CCCN)c2ncccc2c1Oc1ccccc1.O=C(O)CCC(=O)O` (stereo not drawn), the “hERG current change (%, negative = inhibition) at 10uM” value was -4.78%.

Consider `Cc1cncn1CCc1nc2c3ccccc3nc(SCC(=O)Nc3cccc(Cl)c3)n2n1`, for which the “hERG current change (%, negative = inhibition) at 10uM” value is -78.4%.

For `CC(=O)c1ccc(N2CCN(S(=O)(=O)c3cc4[nH]c(=O)c(=O)[nH]c4cc3C)CC2)cc1`, the “hERG current change (%, negative = inhibition) at 10uM” value was determined as 5.43%.

Take `CC(C)NC(=O)C1(O)c2ccccc2NC(=O)N1c1ccc(Cl)c(Cl)c1` (stereo not drawn): the “hERG current change (%, negative = inhibition) at 10uM” value is listed as 9.1%.

Regarding `COc1ccc(OC)c(/C=N/N(C)c2ccccc2)c1`, the “hERG current change (%, negative = inhibition) at 10uM” value came to 3.77%.

For `COc1ccc(N2C(N)=C(C#N)C(c3ccsc3)C3=C2CCCC3=O)c(OC)c1` (stereo not drawn), the “hERG current change (%, negative = inhibition) at 10uM” value is -19.6%.

With `C=C(C)C(=O)Nc1cccc(C2=NOC3(C2)C[C@@H](C(N)=O)N(C(=O)[C@H]2CCC(=O)N2)C3)c1` (stereo partly drawn), the “hERG current change (%, negative = inhibition) at 10uM” value is listed as -0.161%.

For `COc1cc2[nH]c(=S)n(C3CCN(Cc4ccccc4)CC3)c(=O)c2cc1OC`, the “hERG current change (%, negative = inhibition) at 10uM” value was -26.6%.

On to `CCOC(=O)c1sc2ncnc(NCc3ccco3)c2c1C`, for which the “hERG current change (%, negative = inhibition) at 10uM” value is listed as -3.31%.

Turning to `Cc1cccc(OCc2nnc(SCC(=O)NC3CCCCC3)n2C)c1`, the “hERG current change (%, negative = inhibition) at 10uM” value is listed as -0.348%.

For `Cc1nnc(SCC(=O)Nc2ccc(N3CCOCC3)cc2)n1Cc1ccccc1`, the “hERG current change (%, negative = inhibition) at 10uM” value is on record as -3.51%.

In the case of `NC(=O)c1ccc(NC(=O)CCc2nc3ccccc3s2)cc1`, the “hERG current change (%, negative = inhibition) at 10uM” value is reported as 2.49%.

As for `CC(C)c1ccc(N(C(=O)c2ccco2)C(C(=O)NC2CCCC2)c2ccncc2)cc1` (stereo not drawn), the “hERG current change (%, negative = inhibition) at 10uM” value was -42%.

For `O=C(Nc1cccc(-c2nc3cccnc3s2)c1)c1ccco1`, the “hERG current change (%, negative = inhibition) at 10uM” value was -14.9%.

`Oc1[nH]c2ccccc2c1N=Nc1c(F)c(F)c(Cl)c(F)c1F`: the “hERG current change (%, negative = inhibition) at 10uM” value came out at 8.9%.

For `Cc1ccc(-c2nnn(CC(=O)N(CCN3CCOCC3)C(C(=O)NC(C)(C)C)c3ccco3)n2)cc1` (stereo not drawn), the “hERG current change (%, negative = inhibition) at 10uM” value is listed as 13.7%.

Regarding `COc1ccc(OC)c(CCNC(=O)c2cccc(NC3=NC4CS(=O)(=O)CC4S3)c2)c1` (stereo not drawn), the “hERG current change (%, negative = inhibition) at 10uM” value is given as -5.79%.

As for `COc1ccc(-c2noc(COc3ccccc3OC)n2)cc1OC`, the “hERG current change (%, negative = inhibition) at 10uM” value is -4.35%.

`O=C(Nc1ccccc1)OCCOc1cccc(Br)c1`: the “hERG current change (%, negative = inhibition) at 10uM” value turned out to be 1.49%.

On to `O=C(CN1CCN(c2ccc(F)cc2)CC1)NCc1ccc(F)cc1`, for which the “hERG current change (%, negative = inhibition) at 10uM” value is listed as -43.9%.

Consider `CCOC(=O)c1ccc(Oc2cc(C)nc(SC)n2)cc1`, for which the “hERG current change (%, negative = inhibition) at 10uM” value is given as -20.6%.

Regarding `Cc1ccc(S(=O)(=O)N2CCCCCC2)cc1C(=O)NCc1ccccn1`, the “hERG current change (%, negative = inhibition) at 10uM” value was -14.8%.

`O=S(=O)(c1cccc(-c2nc3n(n2)Cc2ccccc2-3)c1)N1CCCCC1`: the “hERG current change (%, negative = inhibition) at 10uM” value was found to be 7.91%.

On to `Cc1ccc2nc(-c3ccc(-c4ccccn4)s3)cn2c1`, for which the “hERG current change (%, negative = inhibition) at 10uM” value is on record as -1.76%.

Consider `CC1CN(Cc2ccccc2)c2nc3c(c(=O)n(CC(N)=O)c(=O)n3C)n2C1` (stereo not drawn), for which the “hERG current change (%, negative = inhibition) at 10uM” value was 14.5%.

For the compound `CN(C)C(=O)c1ccc(NC(=O)COc2ccc([N+](=O)[O-])cc2)cc1`, the “hERG current change (%, negative = inhibition) at 10uM” value is -38.3%.

For `Cc1nn(C(=O)c2c(-c3ccccc3)noc2C)c(C)c1N=Nc1cc(C(F)(F)F)cc(C(F)(F)F)c1`, the “hERG current change (%, negative = inhibition) at 10uM” value was determined as 14.6%.

As for `CCOC(=O)Cn1c(=O)n(Cc2ccc(OC)cc2)c(=O)c2cccnc21`, the “hERG current change (%, negative = inhibition) at 10uM” value is on record as -6.8%.

With `CC1CC1C(=O)N(C)CC(=O)Nc1cccc(F)c1` (stereo not drawn), the “hERG current change (%, negative = inhibition) at 10uM” value is 17.2%.

In the case of `COc1ccc(CN(C(=O)c2oc3cc(C)ccc3c2C)C2CCS(=O)(=O)C2)cc1OC` (stereo not drawn), the “hERG current change (%, negative = inhibition) at 10uM” value is on record as -23.4%.

On to `Cc1ccc(C2/C(=C(\O)c3ccc4c(c3)OCCO4)C(=O)C(=O)N2CC2CCCO2)cc1` (stereo not drawn), for which the “hERG current change (%, negative = inhibition) at 10uM” value is recorded as 9.66%.

Consider `C#CCO[C@@H]1C[C@H](n2cnc3c(=O)[nH]c(NC(=O)C(C)C)nc32)O[C@@H]1CO`, for which the “hERG current change (%, negative = inhibition) at 10uM” value worked out at 15.4%.

Consider `COc1cccc(/C=N/Nc2snc(SC)c2C#N)c1`, for which the “hERG current change (%, negative = inhibition) at 10uM” value is reported as 7.86%.

Consider `Cc1cccc(N2CCN(C(=O)c3cc(S(=O)(=O)N(C)C)ccc3N3CCCC3)CC2)c1C`, for which the “hERG current change (%, negative = inhibition) at 10uM” value is -12.3%.

For `CCN(CC)S(=O)(=O)c1ccc(N2CCOCC2)c(NC(=O)C2CC2)c1`, the “hERG current change (%, negative = inhibition) at 10uM” value was -12.4%.

For the compound `COc1ccccc1NC(=O)c1cc2ccccc2nc1C`, the “hERG current change (%, negative = inhibition) at 10uM” value is listed as 8.42%.

In the case of `CCc1ccc(-c2nc(CSCC(=O)N3CCN(c4ncccn4)CC3)c(C)o2)cc1`, the “hERG current change (%, negative = inhibition) at 10uM” value is reported as -23.6%.

Turning to `CCOC(=O)c1c(-c2ccc(C)o2)csc1NC(=O)CN1CCCCC1.O=C(O)C(=O)O`, the “hERG current change (%, negative = inhibition) at 10uM” value was -4.68%.

Regarding `Cc1ccc(CNC(=O)c2ccc(COc3ccccc3)cc2)cc1`, the “hERG current change (%, negative = inhibition) at 10uM” value was -12.7%.

With `O=C(OCc1ccccc1)c1cccc(-c2nnc(-c3ccccc3)o2)c1`, the “hERG current change (%, negative = inhibition) at 10uM” value is given as -7.17%.

As to `Nc1nc(N2CCN(Cc3ccccc3)CC2)n[nH]1`, the “hERG current change (%, negative = inhibition) at 10uM” value is 24.7%.

`CC(C)Cc1ccc(/C=C/C(=O)N2CCOCC2)cc1`: the “hERG current change (%, negative = inhibition) at 10uM” value is listed as -29%.

With `COc1cccc(C2CC(c3ccccc3OC)n3nc(N)nc3N2)c1` (stereo not drawn), the “hERG current change (%, negative = inhibition) at 10uM” value is listed as -5.43%.

For `OCCNc1nc(Nc2ccccc2)nc(Nc2ccccc2)n1`, the “hERG current change (%, negative = inhibition) at 10uM” value is listed as -9.85%.

As to `CSc1nc(Oc2ccccc2)c2sccc2n1`, the “hERG current change (%, negative = inhibition) at 10uM” value was determined as 6.63%.

For the compound `COc1ccc(CCn2c(=S)[nH]c3ccc(N4CCOCC4)cc3c2=O)cc1OC`, the “hERG current change (%, negative = inhibition) at 10uM” value was 10.2%.

Take `CC(C)[C@H](NC(=O)c1ccc(C(C)(C)C)cc1)C(=O)Nc1nnc(C2CC2)s1`: the “hERG current change (%, negative = inhibition) at 10uM” value is listed as -1.45%.

(Values after PMC4336329 (PLoS ONE, 2015).)
